# Measurements as given in patent US20170304288A1, “Formulations of Methionine Aminopeptidase Inhibitors for Treating Infectious Diseases” (Texas Southern University, priority 2013, published 2017).
# System: C. elegans
# Assay: Toxicity in non-infected C. elegans
# Conditions: 4×10^−3 μg/mL to 4 μg/mL
structure (smiles),measurement,value
"Oc1c(Br)cc(Cl)c2cccnc12 [Compound 5, 7-bromo-5-chloroquinolin-8-ol]",mortality of non-infected animals,≤ 40%
